We go through 43 compounds from the supplement of paper PMC4723716.

± gives the uncertainty stated by the source. Over roughly 9,900 compounds, “viability index relative to DMSO control” has its median near 1; the lowest 2% begin near 0.85. The list shows a part of the results.

The assay relates to Plasmodium falciparum NF54 stage V gametocytes. As to the kind of experiment: viability index relative to DMSO control (fraction); higher = less gametocyte killing. Particulars: 2.5 µM, incubation time: 72 h. An outline of the steps: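 P. falciparum NF54 stage V gametocytes in serum-free screening medium (0.75% gametocytemia, 1.25% hematocrit, 10 µl) were incubated with compound at 2.5 µM in 1,536-well plates for 72 hr at 37°C under low oxygen. Then 3 µl of 2.5 µM MitoTracker Red CMXRos plus 0.13% saponin was added for one to two hours. One field per well was imaged, 20–70 µm2 red particles were counted, and the viability index was the count divided by the plate mean of DMSO wells.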

[1] abbreviates: library set: Broad Institute DOS.

`O=C(Nc1ccccc1F)N1C[C@@H]2[C@H](c3ccccc31)[C@H](CO)N2C(=O)Cc1cccnc1` showed a viability index under setting [1] of 1.02 ± 0.015.
As for `C[C@@H]1CCCCO[C@H](CN(C)C(=O)c2ccncc2)[C@@H](C)CN([C@@H](C)CO)C(=O)c2cc(NC(=O)CCC(F)(F)F)ccc2O1`, the viability index under setting [1] amounted to 1.08 ± 0.017.
`C[C@H](CO)N1C[C@H](C)[C@H](CN(C)C(=O)NC2CCCCC2)OCc2ccccc2-c2c(n(C)c3ccccc23)C1=O` had a viability index under setting [1] of 0.9728 ± 0.001.
`N#Cc1ccc(-c2ccc([C@@H]3[C@@H](CO)N4C(=O)CNC[C@H]34)cc2)cc1`: the viability index under setting [1] was found to be 1 ± 0.057.
As to `N#C[C@H]1[C@@H](c2ccc(C3=CCCCC3)cc2)[C@@H](CO)N1C(=O)Nc1ccccc1F`, the viability index under setting [1] was determined as 1.0169 ± 0.00043.
With `O=C(C[C@@H]1C[C@@H]2c3cc(NS(=O)(=O)c4ccccc4)ccc3O[C@@H]2[C@@H](CO)O1)N1CCOCC1`, the viability index under setting [1] came to 0.988 ± 0.15.
Consider `COCC(=O)Nc1ccc2c(c1)C(=O)N(C)[C@H]1CC[C@H](CC(=O)NC3Cc4ccccc4C3)O[C@H]1CO2`, for which the viability index under setting [1] was determined as 1.16 ± 0.086.
In turn, `CCS(=O)(=O)N1[C@H](C#N)[C@H](c2ccc(C#CCC3CCCC3)cc2)[C@@H]1CO` yielded a viability index under setting [1] of 1.05 ± 0.041.
Turning to `CO[C@@H]1CN(C)C(=O)c2cc(NC(=O)c3ccc4c(c3)OCO4)ccc2OC[C@H](C)N(CCC(F)(F)F)C[C@H]1C`, the viability index under setting [1] was determined as 1.07 ± 0.017.
`C[C@@H]1CCCCO[C@@H](CN(C)C(=O)c2ccncc2)[C@@H](C)CN([C@H](C)CO)C(=O)c2cc(NS(=O)(=O)c3cccs3)ccc2O1` showed a viability index under setting [1] of 1.15 ± 0.064.
On the same count and under the same terms, to `CO[C@H](CN(C)CC1CCOCC1)[C@@H](C)CN(C(=O)Nc1ccc(F)cc1)[C@@H](C)CO` belongs 1.087 ± 0.0089; to `C[C@H](CO)N1C[C@H](C)[C@@H](CN(C)C(=O)c2ccncc2)OCCCC[C@H](C)Oc2ccc(NS(=O)(=O)c3cccs3)cc2C1=O`, 1.07 ± 0.078; to `O=C(C[C@@H]1CC[C@@H](NS(=O)(=O)c2ccc(F)cc2)[C@@H](CO)O1)N1CCN(c2ccccc2)CC1`, 1.08 ± 0.042.
Consider `COCC(=O)N1C[C@@H]2[C@H](c3ccccc31)[C@H](CO)N2C(=O)c1ccccc1F`, for which the viability index under setting [1] was found to be 0.98 ± 0.013.
For `CCCNC(=O)N1[C@@H](CO)[C@H](c2ccccc2)C12CN(C(=O)C1CCCCC1)C2`, the viability index under setting [1] worked out at 1.02 ± 0.091.
The compound `Cc1noc(C)c1NC(=O)Nc1ccc2c(c1)CC(=O)N([C@H](C)CO)C[C@@H](C)[C@H](CN(C)Cc1ccc(C(F)(F)F)cc1)O2` showed a viability index under setting [1] of 1.04 ± 0.076.
`CCCC(=O)Nc1ccc2c(c1)C(=O)N(C)C[C@H](OC)[C@H](C)CN(C(=O)c1ccccn1)[C@@H](C)CO2` registered a viability index under setting [1] of 1.07 ± 0.045.
Under setting [1], `CCCC#Cc1ccc([C@H]2[C@@H](CO)N[C@@H]2CN(C(C)=O)C2CCCC2)cc1` came in with a viability index of 0.91 ± 0.063.
Still for that read-out and setting: the result for `Cc1noc(C)c1NC(=O)N(C)C[C@H]1Oc2ccc(NC(=O)Cc3cn(C)c4ccccc34)cc2CC(=O)N([C@@H](C)CO)C[C@@H]1C` reads 0.991 ± 0.059; that for `CCCNC(=O)Nc1ccc2c(c1)OC[C@@H](C)N(S(C)(=O)=O)C[C@@H](C)[C@H](OC)CN(C)C2=O`, 1.01 ± 0.026.
`COc1ccc2c3c([C@@H](CO)NC[C@]33CN(C3)C(=O)Nc3ccccc3F)n(C)c2c1` showed a viability index under setting [1] of 1.035 ± 0.0084.
The same measure, in the same setting: the result for `COc1ccccc1S(=O)(=O)N[C@@H]1C=C[C@@H](CC(=O)N2CCOCC2)O[C@H]1CO` reads 1.13 ± 0.041.
As for `Cc1ccc(S(=O)(=O)N(C)C[C@@H]2OCc3ccccc3-c3c(n(C)c4ccccc34)C(=O)N([C@@H](C)CO)C[C@@H]2C)cc1`, under “library set: Broad Institute Blood Stage”, the viability index turned out to be 0.728 ± 0.062.
In turn, `C[C@@H]1CN([C@H](C)CO)C(=O)c2cc(NC(=O)C3CC3)ccc2O[C@@H]1CN(C)S(=O)(=O)c1ccccc1` returned a viability index under setting [1] of 0.877 ± 0.27.
`COc1ccc(S(=O)(=O)Nc2ccc3c(c2)CC(=O)N([C@@H](C)CO)C[C@H](C)[C@H](CN(C)Cc2ccc(C(=O)Nc4ccccc4N)cc2)O3)cc1`: under setting [1], the viability index was determined as 0.993 ± 0.024.
Consider `COc1ccc(S(=O)(=O)N2C[C@@H](O)COC[C@@H]3O[C@@H](CC(=O)N[C@H]4CCN(Cc5ccccc5)C4)CC[C@H]32)cc1`, for which, under setting [1], the viability index came out at 0.8771 ± 0.005.
For the compound `CC(=O)N1[C@H](CO)[C@H](c2ccc(-c3ccccc3F)cc2)[C@@H]1CNC(C)C`, the viability index under setting [1] turned out to be 1.04 ± 0.032.
Still for that read-out and setting: to `C[C@H](CO)N1C[C@H](C)[C@H](CN(C)S(=O)(=O)c2ccccc2)OCCCC[C@H](C)Oc2ccc(NC(=O)Nc3ccc4c(c3)OCO4)cc2C1=O` belongs 1.018 ± 0.0033; to `N#Cc1cccc(-c2ccc3c(c2)[C@H]2[C@H](CCN2C(=O)c2ccccc2F)[C@@H](CO)N3)c1`, 1.01 ± 0.063.
In turn, `COc1ccc2c3c([nH]c2c1)[C@H](CO)N(Cc1ccccc1F)C[C@]31CN(CC2CC2)C1` yielded a viability index under setting [1] of 0.985 ± 0.05.
The compound `C[C@H]1CN([C@@H](C)CO)C(=O)c2cccc(NC(=O)c3ccncc3)c2O[C@H]1CN(C)Cc1ccc2c(c1)OCO2` showed a viability index under setting [1] of 1.02 ± 0.062.
Take `C/C=C/c1ccc([C@@H]2[C@@H](CO)N3C(=O)CN(S(=O)(=O)c4ccccc4)C[C@@H]23)cc1`: the viability index under setting [1] turned out to be 0.777 ± 0.16.
In turn, `C[C@H]1CN([C@@H](C)CO)C(=O)c2ccccc2-c2ccccc2CO[C@H]1CN(C)C(=O)Nc1ccc(-c2ccccc2)cc1` gave a viability index under setting [1] of 0.724 ± 0.14.
Under setting [1], `COc1ccc(C#Cc2ccc([C@H]3[C@@H](CO)N4C(=O)CN(C(=O)NC(C)C)C[C@@H]34)cc2)cc1` registered a viability index of 0.986 ± 0.014.
Take `O=C(C[C@H]1C=C[C@@H](NC(=O)Cc2ccccn2)[C@H](CO)O1)NCCc1ccncc1`: under setting [1], the viability index stood at 0.9 ± 0.049.
The compound `COc1ccc(CNC(=O)N(C)C[C@@H]2OCc3ccccc3-c3c(n(C)c4ccccc34)C(=O)N([C@H](C)CO)C[C@@H]2C)cc1` yielded a viability index under setting [1] of 0.965 ± 0.047.
Under setting [1], `C[C@H]1CN([C@@H](C)CO)C(=O)c2ccccc2-c2ccccc2CO[C@@H]1CN(C)C(=O)Nc1ccnc(N2CCOCC2)c1` gave a viability index of 1.02 ± 0.2.
With `Cc1ccc(S(=O)(=O)N2C[C@@H]3N[C@H](C2)[C@@H]3c2ccc(-c3ccc(C(=O)N(C)C)cc3)cc2)cc1`, the viability index under setting [1] was 1.08 ± 0.018.
Compound `C/C=C/c1ccc([C@H]2[C@@H](CNC(C)C)N(C(=O)c3ccccn3)[C@H]2CO)cc1` had a viability index under setting [1] of 0.972 ± 0.042.
The compound `COc1ccc2c3c([C@H](CO)N(CC4CCOCC4)C[C@]33CN(Cc4nccs4)C3)n(C)c2c1` displayed a viability index under setting [1] of 1.08 ± 0.019.
Compound `CO[C@@H]1CN(C)C(=O)c2ccc(NC(=O)c3cccc(F)c3)cc2OC[C@@H](C)NC[C@@H]1C` displayed a viability index under setting [1] of 1.04 ± 0.032.
Under setting [1], `O=C(C[C@H]1C[C@H]2c3cc(NC(=O)c4cccnc4)ccc3O[C@H]2[C@@H](CO)O1)NCc1cc(F)ccc1F` returned a viability index of 0.986 ± 0.07.
Turning to `CCN(C[C@H]1[C@H](c2ccc(-c3cccnc3)cc2)[C@@H](CO)N1C(C)=O)C(C)=O`, under setting [1], the viability index turned out to be 1.049 ± 0.0067.
